# Source: PubChem BioAssay AID1508624 (National Center for Advancing Translational Sciences (NCATS), 2021)
# The whole screen tested about 48,000 compounds, of which about 120 (0.25%) were called active. About 4% were inconclusive and are not listed. The call rests on the fitted dose curve; in most records, active means well fitted activation curve with a large enough effect; inconclusive means small, poorly fitted or top-dose-only effect, or another doubt; inactive means no such curve, though single readings can be large or run the other way. This is one part of the list.
# Test: Primary qHTS for Identification of Small Molecule Activators of Huntingtin-Antisense Promoter Activity; further: nearly all actives have a fitted effect of over 55% in size
# Conditions: HEK293 HTT-AS promoter firefly luciferase reporter, 24 h; series mostly up to 57.5 µM; activity change, positive = activation: at the top concentration
# Summary of the method: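 Firefly luciferase readout (Dual-Glo, 10 min RT) after 24 h, 37 °C compound exposure (final up to 57.5 uM) of HEK293 reporter cells cultured 24 h beforehand; PTC124 at 50 uM final as control inhibitor; activity scaled vehicle 0%, zero RLU -100%.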
# Potency means the concentration at half of the fitted maximal effect.
Compound,"activity change, positive = activation",Potency
CCOC(=O)c1cnc2c(ccc3ccccc32)c1Nc1ccc(N(C)C)cc1,inactive: -9.86%,–
CCCN(C(=O)c1cc(S(=O)(=O)N2CCc3ccccc32)cn1C)c1ccc(OCC)cc1,inactive: -37.4%,–
Cc1ccc(Cl)cc1N1CCN(c2ncnc3c2nc2n3CCCC2)CC1,inactive: -5.32%,–
Cc1ccccc1NC(=O)C(=O)NCC(c1ccc2c(c1)OCO2)N1CCN(c2ccccc2)CC1 (stereo unspecified),inactive: -13.1%,–
CCOc1ccc(C2C(C(=O)Nc3ccccc3)=C(C)Nc3nc(-c4ccccc4Cl)nn32)cc1OC (stereo unspecified),inactive: -19.6%,–
COc1ccc(CNC(=O)Cn2c(=O)oc3cc(S(=O)(=O)NCc4ccccc4)ccc32)cc1,inactive: -31.5%,–
CCOc1ccc(Nc2cc(C)nc3nncn23)cc1,inactive: -16.2%,–
Cc1ccccc1NC(=O)Cn1cc(S(=O)(=O)c2ccccc2)c(=O)c2ccccc21,inactive: -1.27%,–
NC1=N[C@H]2[C@H](CS[C@H]2CCCCC(=O)O)N1,"inactive: -10.2% [at 25.1 µM, percent change from vehicle, -100% = no light]",–
COc1ccc(NC(=O)c2cc3c(-c4ccccc4F)nn(C)c3s2)c(OC)c1,inactive: -15.2%,–
CCC(C)NC(=O)c1cc(Sc2cccc(Cl)c2)nc2ccccc12 (stereo unspecified),inactive: -18.3%,–
FC(F)(F)c1cccc(N2CCN(c3ncnc4c3nc3n4CCCC3)CC2)c1,inactive: -89.3%,–
O=C(Cn1nc(C(F)(F)F)c2c1CCCC2)Nc1cccc(Cl)c1,inactive: -51.6%,–
CCCn1c2ccccc2c2cnn(CC(=O)NCCCN3CCCCC3CC)c(=O)c21 (stereo unspecified),inactive: -18.4%,–
Cc1ccc(NC(=O)Cn2c(=O)n(-c3ccc(C)cc3)c(=O)c3c2cnn3C)cc1,inactive: -12.3%,–
Cc1ccc(Cc2nc3ccccc3nc2SCC(=O)N2CCC(C)CC2)cc1,inactive: -37.3%,–
Cc1ccc(-n2nc(C)c3c(C)c(CCC(=O)NC(C)c4ccccc4)c(C)nc32)cc1 (stereo unspecified),inactive: -1.01%,–
Fc1ccc(CN2CCc3nc(N4CCN(c5ccccc5F)CC4)ncc3C2)c(F)c1,inactive: -27.6%,–
CCOc1ccc(NC(=O)c2c(C)oc3nc(C)nc(N4CCCC4)c23)cc1,inactive: -12.4%,–
COc1cccc(C(=O)Nc2ccc3nc(SCC(=O)N(C)c4ccccc4)sc3c2)c1,inactive: -50.2%,–
Cc1ccc(CNC(=O)c2ccc(CSc3nc4ccncc4n3Cc3ccc(C)cc3)cc2)cc1,inactive: -31.9%,–
COc1ccc(CCNC(=O)CCc2cn(Cc3ccccc3Cl)c3ccccc23)c(OC)c1,inactive: -13.3%,–
O=C(NCCc1ccc(Cl)cc1)C1CCN(Cc2cc3ccccc3n2Cc2ccccc2)CC1,inactive: -28.1%,–
CCOc1ccc(-c2cc(NC(=O)c3ccccc3)c(C(=O)OC)s2)cc1,inactive: -3.86%,–

Compound,"activity change, positive = activation",Potency
COc1ccccc1CCNC(=O)c1cccn1-c1nnc(N2CCCC2)s1,inactive: -4.51%,–
Cc1cc(C)c(NC(=O)Cn2c(=O)oc3cc(S(=O)(=O)N4CCCCCC4)ccc32)c(C)c1,inactive: -42.5%,–
CCOC(=O)N1CCC(NC(=O)c2cnn(-c3ccc(OC)cc3)c2C2CCN(C(=O)OC(C)(C)C)CC2)CC1,inactive: -2.93%,–
Cc1ccccc1NC(=O)COc1ccc2oc3c(c2c1)CCCC3,inactive: -4.21%,–
O=C(CN1C(=O)COc2ccc(S(=O)(=O)N3CCCCCC3)cc21)N1CCN(c2ccc(F)cc2)CC1,inactive: -18.2%,–
COc1ccc(-c2cc3nc(C)c(CCC(=O)NCCc4ccc(Cl)cc4)c(C)n3n2)c(OC)c1,inactive: -12.7%,–
Fc1cc(-c2cccc3ncc(-c4cnn(C5CCNCC5)c4)nc23)cc(F)c1CN1CCOCC1,inactive: -12.3%,–
Cc1ccc(Cn2c(=O)c3cccnc3n(Cc3ccc(C)cc3)c2=O)cc1,inactive: -12.8%,–
Cc1ccc(Cn2c(=O)n(-c3cccc(C(F)(F)F)c3)c(=O)c3c(C)c(C)sc32)c(C)c1,inactive: 9.26%,–
Cc1cn(C)c(CC(=O)Nc2cccc(C#N)c2)c1C(=O)O,inactive: -1.9%,–
Cc1ccc(CSc2ncc(Cl)c(C(=O)Oc3ccccc3F)n2)cc1,inactive: 16.8%,–
Cc1ccccc1OCCn1cc(C(=O)c2ccco2)c2ccccc21,inactive: -22.1%,–
Cc1ccc(-c2nn3c(=O)cc(CN4CCN(C(=O)Nc5cccc(C(F)(F)F)c5)CC4)nc3s2)cc1,inactive: 4.52%,–
COc1ccc(OC)c(C2CC(=O)c3c([nH]c(C(=O)OCc4ccc(C)cc4)c3C)C2)c1 (stereo unspecified),inactive: -37.7%,–
Clc1ccc(-c2noc3ncnc(NC4CCCCC4)c23)cc1,inactive: -26.3%,–
Cc1ccc(CCNC(=O)c2cnc3c(-c4ccc(F)cc4)c(C)nn3c2C)cc1,inactive: -7.86%,–
COc1ccc(-c2c(C)c3cc(OC(=O)N4CCOCC4)ccc3oc2=O)cc1OC,inactive: -6.93%,–
CC(CNC(=O)c1ccc(Cn2c(=O)c3cccn3c3cccnc32)cc1)c1ccccc1 (stereo unspecified),inactive: -22.6%,–
COc1cc(CNC(=O)c2ccc3nc(Cc4ccccc4)oc3c2)cc(OC)c1OC,inactive: -44.9%,–
COc1cccc(C(=O)CC2(O)C(=O)N(Cc3ccccc3)c3ccccc32)c1 (stereo unspecified),inactive: -13.4%,–
NC(=O)Cn1c(=O)n(CCCCCC(=O)NCc2ccc3c(c2)OCO3)c(=O)c2sccc21,inactive: -5.59%,–
COc1cccc(Cn2nnc(C(=O)NCc3ccc(Cl)cc3Cl)c2N)c1,inactive: -21.7%,–
CCc1cccc(NC(=O)Cn2c(=O)n3nc(-c4cccc(F)c4)nc3c3ccccc32)c1,inactive: -3.82%,–
Cc1ccccc1C(=O)Nc1sc2c(c1C(=O)N1CCC(C)CC1)CCC(C)C2 (stereo unspecified),inactive: -20%,–

Compound,"activity change, positive = activation",Potency
COc1ccc(NC(=O)c2nnn(CC(=O)Nc3ccc(C)c(C)c3)c2N)cc1OC,inactive: -40.1%,–
CCCCCCOC(=O)N=C(N)c1ccc(NCc2nc3cc(C(=O)N(CCC(=O)OCC)c4ccccn4)ccc3n2C)cc1,inactive: -23.8%,–
CCOc1cc2[nH]c(=O)n(CCCCC(=O)N3CCN(c4ccccc4OC)CC3)c(=O)c2cc1OCC,inactive: -7.09%,–
COc1ccc2c(c1)c1c(c(=O)n(-c3ccc(OC)c(OC)c3)c(=O)n1Cc1ccc(F)cc1)n2C,inactive: -11.9%,–
Cc1cn2c(=O)cc(COC(=O)c3ccc(NC(=O)c4ccccc4C)cc3)nc2s1,inactive: -5.69%,–
Cc1ccccc1CS(=O)(=O)Cc1ccc(C(=O)NCCc2ccc(Cl)cc2)o1,inactive: -38.4%,–
CCOC(=O)C1CCCN(c2c(C(=O)c3ccccc3)cnc3ccc(F)cc23)C1 (stereo unspecified),inactive: -14.9%,–
COc1ccc(NC(=O)Cc2c(C(=O)O)[nH]c3ccccc23)cc1OC,inactive: -2.62%,–
CCOC(=O)c1c(C)n(C)c2ccc(O)cc12,inactive,–
COc1ccc(CNC(=O)Cc2coc3ccc(C)cc23)cc1,inactive: -22.4%,–
Cc1ccc(NC(=O)c2oc3ccc(S(=O)(=O)N4CCOCC4)cc3c2C)c(C)c1,inactive: -19.7%,–
O=C(CCS(=O)(=O)c1nc(-c2ccc3c(c2)OCO3)cc(C(F)(F)F)n1)Nc1ccc(Br)cc1,inactive: -51.7%,–
O=C1CC(c2c(F)cccc2Cl)c2c(ccc3ccccc23)N1 (stereo unspecified),inactive: -37.9%,–
COc1cc(C2c3c(oc4ccc(F)cc4c3=O)C(=O)N2Cc2ccc3c(c2)OCO3)ccc1O (stereo unspecified),inactive: -9.08%,–
CCCCN(CC)C(=O)c1c[nH]c2ccc(S(=O)(=O)N(C)c3ccc(Cl)cc3)cc2c1=O,inactive: -35.6%,–
COc1ccc(C(=O)Nc2ccc3nc4c(c(Nc5ccccc5OC)c3c2)CCCC4)c(OC)c1,inactive: -23.8%,–
COC(=O)c1cccnc1-n1c(=O)c2cccnc2n(CC(=O)Nc2cccc(C)c2)c1=O,inactive: 7.25%,–
CC(C)Oc1ccc(CNC(=O)c2ccc3c(c2)nc2n3CCOC2)cc1,inactive: 24.1%,–
COc1cc(NC(=O)N2CCSc3ccccc32)cc(OC)c1OC,inactive: -9.34%,–
CCN(c1ccccc1C)S(=O)(=O)c1nnc(NC(=O)c2ccccc2C)s1,inactive: -32.3%,–
Nc1cc(-c2ccncc2)c[nH]c1=O,inactive: -9.13%,–
CCOc1ccc(CN2CCN(Cc3ccc4c(c3)c3ccccc3n4CC)CC2)cc1,inactive: -57.7%,–
O=C(CCn1c(=O)c2ccccc2n(Cc2cccc(F)c2)c1=O)NCc1ccc2c(c1)OCO2,inactive: -14.3%,–
CCOc1ccc(C(=O)/C=C/c2cn(CC(O)CN3CCc4ccccc43)c3ccccc23)cc1 (stereo unspecified),inactive: -15.4%,–

Compound,"activity change, positive = activation",Potency
Cc1cc(C)cc(N2C(=O)N(Cc3cc(=O)n4ccccc4n3)c3ccccc3S2(=O)=O)c1,inactive: -34%,–
COc1cc(OC)c(OC)cc1CN1CCc2nc(N3CCN(C)CC3)ncc2C1,inactive: -13.5%,–
Cc1ccc(-c2c(C(=O)N3CCN(c4ccc(F)cc4)CC3)oc(=O)c3ccccc23)cc1,inactive: -16.9%,–
CCc1nn(CC(=O)NCc2ccc(C)cc2)c(=O)c2cc3occc3n12,inactive: -7.13%,–
COc1ccc(N2CCN(c3nc4ccc(C(=O)c5ccccc5)cc4n4cnnc34)CC2)cc1,inactive: -14.6%,–
Cc1cccc2c1-c1sc(C(=O)NCCCN3CCN(c4ccccc4F)CC3)cc1CO2,inactive: -38.1%,–
N#Cc1ccc(Oc2ccc3c(c2)COB3O)cc1,inactive: 0.205%,–
CC(=O)Nc1nnc2n1CCS2,inactive: -16.5%,–
Cc1ccc(CN2CCC(CNC(=O)Nc3ccc(C)c(C)c3)C2)cc1 (stereo unspecified),inactive: -15.4%,–
COc1ccc(C)cc1NC(=O)c1nnn(-c2c(C)cccc2C)c1C,inactive: -14.3%,–
COc1ccc(C)cc1NC(=O)c1oc2ccc(S(=O)(=O)N3CCC4(CC3)OCCO4)cc2c1C,inactive: -10%,–
Cc1ccc(C)c(NC(=O)/C(C#N)=C/c2ccc(C(C)C)cc2)c1,inactive: 19.2%,–
CC(C)N(C(=O)Cn1cc(SCC(=O)Nc2ccccc2C(F)(F)F)c2ccccc21)C(C)C,inactive: -19.2%,–
CCCCc1ccc2nc(NC(=O)OC)[nH]c2c1,inactive,–
CCOc1ccc(C2C(C(=O)Nc3ccccc3C)=C(C)Nc3nnnn32)cc1 (stereo unspecified),inactive: -7.47%,–
CC(N)C12CC3CC(CC(C3)C1)C2 (stereo unspecified),inactive,–
CCCc1nnc(NC(=O)Nc2ccccc2Cl)s1,–,active: 3.55 µM
CCOc1ccc(OCC)c(NC(=O)C2CCCN(S(=O)(=O)c3cc(Br)cc4c3N(C(=O)CC)CC4)C2)c1 (stereo unspecified),inactive: -6.67%,–
Cc1nc2nc(C)c(NS(=O)(=O)c3ccc(CC(C)C)cc3)c(=O)n2[nH]1,inactive: -0.698%,–
Cc1nn(C(=O)c2c(F)cccc2F)c(C)c1S(=O)(=O)N1CCCCCC1,inactive: -4.95%,–
CCn1c(CN2CCOCC2)nc2cc(NC(=O)c3cccc([N+](=O)[O-])c3)ccc21,inactive: 14.7%,–
COc1ccc(NC(=O)Cn2cc(C(=O)c3ccccc3OC)c(=O)c3ccc(C)nc32)cc1OC,inactive: -29.4%,–
Cn1c(=O)c2c(-c3ccccc3)n(CCCO)cc2n(C)c1=O,inactive: -6.16%,–
CCOC(=O)c1cc(-c2ccccc2)n(CCCC(=O)Nc2ccccc2C)c1C,inactive: -40.7%,–
